This is an account of results in patent US20250026846A1 (JCR PHARMACEUTICALS, published 2025).

Read-outs that look alike come from different tables or passages of the source.

Test [1] has as its target T1, recombinant human TfR (r human TfR: Sino Biological Inc.), hTfR extracellular region with a histidine tag at … (human, UniProt P02786).
T1 construct: Bought from Sino Biological; also called r human TfR-ECD (Histag); recombinant hTfR; not shown: histidine tag at the N-terminus
As to the kind of experiment: BLI (Octet RED96), His-tagged TfR ECD on Ni-NTA sensor. Here is the method: (§1) Each of the sample solutions prepared above by 2-fold dilution steps was added, 200 μL/well, to a 96-well plate, black (Greiner Bio-One Inc.). Each of the r human TfR-ECD (Histag) solution and the r monkey TfR-ECD (Histag) solutions prepared above was added, 200 μL/well, to predetermined wells. To respective wells for baseline, dissociation and washing were added HBS-P+, 200 μL/well. To wells for regeneration were added 10 mM Glycine-HCl (pH 1.7), 200 μL/well. To wells for activation was added 0.5 mM NiCl₂ solution, 200 μL/well. The plate and biosensor (Biosensor/Ni-NTA: ForteBio Inc., a division of Pall Corporation) were set in the prescribed positions of Octet RED96.
(§2) The measurement was performed at 25 to 30° C.
(§3) The affinity of the purified product of Fc-Fab (3N) obtained in Example 20-3 to human TfR and monkey TfR was measured by the method described in Example 7.
(Biolayer interferometry detects binding as a change in optical thickness at a sensor tip.)

Test [2] concerns the target T2, recombinant monkey TfR (r monkey TfR: Sino Biological Inc.), crab-eating monkey TfR extracellular region with … (crab-eating monkey (Macaca fascicularis)).
T2 construct: Bought from Sino Biological; also called r monkey TfR-ECD (Histag); not shown: histidine tag at the N-terminus
T2 chain: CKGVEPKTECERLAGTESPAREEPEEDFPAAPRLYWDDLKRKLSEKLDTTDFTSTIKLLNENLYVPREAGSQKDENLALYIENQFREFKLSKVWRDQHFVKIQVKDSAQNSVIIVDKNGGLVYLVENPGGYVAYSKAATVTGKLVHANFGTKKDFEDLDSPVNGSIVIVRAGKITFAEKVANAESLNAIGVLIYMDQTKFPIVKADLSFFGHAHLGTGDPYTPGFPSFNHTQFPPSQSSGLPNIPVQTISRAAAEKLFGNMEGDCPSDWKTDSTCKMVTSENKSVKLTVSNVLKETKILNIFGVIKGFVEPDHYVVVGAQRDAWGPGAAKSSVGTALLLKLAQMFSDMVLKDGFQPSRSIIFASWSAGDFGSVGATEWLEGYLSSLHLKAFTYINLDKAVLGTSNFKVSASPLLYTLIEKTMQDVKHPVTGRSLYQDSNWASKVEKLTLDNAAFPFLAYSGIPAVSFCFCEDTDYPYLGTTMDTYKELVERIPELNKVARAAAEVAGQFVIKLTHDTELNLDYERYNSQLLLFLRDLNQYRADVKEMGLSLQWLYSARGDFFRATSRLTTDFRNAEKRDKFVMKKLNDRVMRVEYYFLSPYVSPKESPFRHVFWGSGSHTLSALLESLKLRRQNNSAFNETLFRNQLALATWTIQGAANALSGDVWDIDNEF
The description is as above. Here is the method:
as §1, §2, §3

In test [3] the target is T1, recombinant human TfR (r human TfR: …). The test is described as above. Here is the method:
as §1, §2
(§4) The affinity of the I2S-anti-hTfR antibodies obtained in Example 22 to human TfR and monkey TfR was measured in accordance with the method described in Example 7.
This is another data set of the same source.

The target of test [4] is T2, recombinant monkey TfR (r monkey TfR: …). The description is as above. As to the method:
as §1, §2, §4

For test [5], the target named is T1, recombinant human TfR (r human TfR: …). As to the kind of experiment: BLI (Octet RED96).

B1: Fc-Fab (3N): human IgG Fc region-added Fab of humanized anti-hTfR antibody 3N (Fc fusion)
light: DIVMTQTPLSLSVTPGQPASISCRSSQSLVHSNGNTYLHWYLQKPGQSPQLLIYKVSNRFSGVPDRFSGSGSGTDFTLKISRVEAEDVGVYYCSQSTHVPWTFGQGTKVEIKRTVAAPSVFIFPPSDEQLKSGTASVVCLLNNFYPREAKVQWKVDNALQSGNSQESVTEQDSKDSTYSLSSTLTLSKADYEKHKVYACEVTHQGLSSPVTKSFNRGEC
heavy: [sequence of human IgG1 Fc omitted]GGGGSGGGGSGGGGSGGGGSGGGGSEVQLVQSGAEVKKPGESLKISCKGSGYSFMNYWLGWVRQMPGKGLEWMGDIYPGGDYPTYSEKFKVQVTISADKSISTAYLQLSSLKASDTAMYYCARSGNYDEVAYWGQGTLVTVSSASTKGPSVFPLAPSSKSTSGGTAALGCLVKDYFPEPVTVSWNSGALTSGVHTFPAVLQSSGLYSLSSVVTVPSSSLGTQTYICNVNHKPSNTKVDKKVEPKSCDKTHT
notes: The light chain comes from pE-hygr(LC3); also called hFc-humanized anti-hTfR antibody
Broadly, the Kd is the constant that tells how readily two partners part at equilibrium. For orientation: koff means the first-order rate constant of dissociation. The term kon denotes a measure of how fast the partners come together. As for B1, in test [1], the Kd is below 1 pM, the koff is below 1e-07 s⁻¹ and the kon amounted to 667000 M⁻¹ s⁻¹. Also, in test [2], the Kd stood at 861 pM, the koff was found to be 0.000209 s⁻¹ and the kon came to 243000 M⁻¹ s⁻¹.

B2: I2S-anti-hTfR antibody 3 (fusion protein of hI2S and humanized anti-hTfR antibody No. 3) (other)
light: DIVMTQTPLSLSVTPGQPASISCRSSQSLVHSNGNTYLHWYLQKPGQSPQLLIYKVSNRFSGVPDRFSGSGSGTDFTLKISRVEAEDVGVYYCSQSTHVPWTFGQGTKVEIKRTVAAPSVFIFPPSDEQLKSGTASVVCLLNNFYPREAKVQWKVDNALQSGNSQESVTEQDSKDSTYSLSSTLTLSKADYEKHKVYACEVTHQGLSSPVTKSFNRGEC
heavy: EVQLVQSGAEVKKPGESLKISCKGSGYSFTNYWLGWVRQMPGKGLEWMGDIYPGGDYPTYSEKFKVQVTISADKSISTAYLQWSSLKASDTAMYYCARSGNYDEVAYWGQGTLVTVSS[sequence of human IgG1 constant region omitted]GSSETQANSTTDALNVLLIIVDDLRPSLGCYGDKLVRSPNIDQLASHSLLFQNAFAQQAVCAPSRVSFLTGRRPDTTRLYDFNSYWRVHAGNFSTIPQYFKENGYVTMSVGKVFHPGISSNHTDDSPYSWSFPPYHPSSEKYENTKTCRGPDGELHANLLCPVDVLDVPEGTLPDKQSTEQAIQLLEKMKTSASPFFLAVGYHKPHIPFRYPKEFQKLYPLENITLAPDPEVPDGLPPVAYNPWMDIRQREDVQALNISVPYGPIPVDFQRKIRQSYFASVSYLDTQVGRLLSALDDLQLANSTIIAFTSDHGWALGEHGEWAKYSNFDVATHVPLIFYVPGRTASLPEAGEKLFPYLDPFDSASQLMEPGRQSMDLVELVSLFPTLAGLAGLQVPPRCPVPSFHVELCREGKNLLKHFRFRDLEEDPYLPGNPRELIAYSQYPRPSDIPQWNSDKPSLKDIKIMGYSIRTIDYRYTVWVGFNPDEFLANFSDIHAGELYFVDSDPLQDHNMYNDSQGGDLFQLLMP
For B2, in test [3], the Kd came to 126 pM, the koff came to 0.000104 s⁻¹ and the kon amounted to 829000 M⁻¹ s⁻¹. In test [4], the Kd turned out to be 1090 pM, the koff was 0.00041 s⁻¹ and the kon came to 377000 M⁻¹ s⁻¹.

B3: I2S-anti-hTfR antibody 3N (fusion protein of hI2S and humanized anti-hTfR antibody No. 3N) (other)
light: DIVMTQTPLSLSVTPGQPASISCRSSQSLVHSNGNTYLHWYLQKPGQSPQLLIYKVSNRFSGVPDRFSGSGSGTDFTLKISRVEAEDVGVYYCSQSTHVPWTFGQGTKVEIKRTVAAPSVFIFPPSDEQLKSGTASVVCLLNNFYPREAKVQWKVDNALQSGNSQESVTEQDSKDSTYSLSSTLTLSKADYEKHKVYACEVTHQGLSSPVTKSFNRGEC
heavy: EVQLVQSGAEVKKPGESLKISCKGSGYSFMNYWLGWVRQMPGKGLEWMGDIYPGGDYPTYSEKFKVQVTISADKSISTAYLQLSSLKASDTAMYYCARSGNYDEVAYWGQGTLVTVSS[sequence of human IgG1 constant region omitted]GSSETQANSTTDALNVLLIIVDDLRPSLGCYGDKLVRSPNIDQLASHSLLFQNAFAQQAVCAPSRVSFLTGRRPDTTRLYDFNSYWRVHAGNFSTIPQYFKENGYVTMSVGKVFHPGISSNHTDDSPYSWSFPPYHPSSEKYENTKTCRGPDGELHANLLCPVDVLDVPEGTLPDKQSTEQAIQLLEKMKTSASPFFLAVGYHKPHIPFRYPKEFQKLYPLENITLAPDPEVPDGLPPVAYNPWMDIRQREDVQALNISVPYGPIPVDFQRKIRQSYFASVSYLDTQVGRLLSALDDLQLANSTIIAFTSDHGWALGEHGEWAKYSNFDVATHVPLIFYVPGRTASLPEAGEKLFPYLDPFDSASQLMEPGRQSMDLVELVSLFPTLAGLAGLQVPPRCPVPSFHVELCREGKNLLKHFRFRDLEEDPYLPGNPRELIAYSQYPRPSDIPQWNSDKPSLKDIKIMGYSIRTIDYRYTVWVGFNPDEFLANFSDIHAGELYFVDSDPLQDHNMYNDSQGGDLFQLLMP
In the case of B3, in test [3], the Kd came out at 27.5 pM, the koff is 1.9e-05 s⁻¹ and the kon was 692000 M⁻¹ s⁻¹. Besides, in test [4], the Kd was below 1 pM, the koff was below 1e-07 s⁻¹ and the kon is 383000 M⁻¹ s⁻¹. The “fold affinity against I2S-anti-hTfR antibody 3” value in test [5] was around 5 fold.
